Read counts are not given, so values of variants with three or more changes are uncertain.
B1: LINE1-full (parent)
chain: UACGUAGGUGGUUUUCCCCUGAUAGUGCUAAGGGGGCCUGGAAGUUUGGACUGGGCAGAGCUCAACACAGCGUGGCAAAGUGGCUGUGGCUAGACUGCCUCUCUGGAUUCCUCGUCACUCAGCAGGGCAUCUCUGAGAGAAAUGCC

Variants of: B1
Assay: self-cleavage, relative activity (ratio to wild type); higher = more cleavage; in vitro, sequencing; the parent is a self-cleaving ribozyme
Variant U87C G114A U134A has a self-cleavage of 0.1. For U47A A92U A129G U130C, the self-cleavage was 0.19. Variant A124U U134A A142G has a self-cleavage of 1.13. For A6G U12A U100A A121G, the self-cleavage was 0. In the case of C18U A30G U112A, the self-cleavage is reported as 0.51. In the case of U9C U13C G137U, the self-cleavage is reported as 0.53. Variant U1C U39C U73A U143C has a self-cleavage of 0.34. With U13C C56U A79C A138G the self-cleavage was 0.18. Variant U20C C113A A138G has a self-cleavage of 1.21. For U39A A59G U62C A77G U87A, the self-cleavage was 0.23. With A59G U87G C120U the self-cleavage was 0.02. Variant U26G U81A U115C has a self-cleavage of 2.3. U15C A69U A94G gave a self-cleavage of 0.1. U15C A22U G72U C131U showed a self-cleavage of 1.34. Work on U47C A64G C84G A92G yielded a self-cleavage of 0. In the case of U45A U104C G144U, the self-cleavage is reported as 1.51. A67G U73C U112A gave a self-cleavage of 0.81. In the case of A22G A50G A64U A65C, the self-cleavage is reported as 0. Work on U12C G49A A57G U96C yielded a self-cleavage of 2.68. U15C U39C A79G U109A showed a self-cleavage of 1.21. In the case of U39A U100C A117G, the self-cleavage is reported as 2.42. In the case of U12C U87C U108A, the self-cleavage is reported as 0.53. Work on U14C C38A U104C A141G yielded a self-cleavage of 1.05. Work on A64C A79G U104A yielded a self-cleavage of 0.4. Variant U13C U47A C71U has a self-cleavage of 0.59. C63A U85C A94G showed a self-cleavage of 0.05. U73A A78G A138U A141G showed a self-cleavage of 0.45. Variant U13C U14C A24U U85A has a self-cleavage of 0.5. In the case of U46C A69G A138G A142G, the self-cleavage is reported as 2.76. With A43G A79U U87A A138G G139U the self-cleavage was 0.04. U45C G48A C61U showed a self-cleavage of 0.05. Variant G25A G32A A78G U109C has a self-cleavage of 0.67. In the case of U13A U26C A43G A57U, the self-cleavage is reported as 0.26. For U85A A107U U134A, the self-cleavage was 0.1. For U46A U100C U115G, the self-cleavage was 1.24. For U1A U13A A77G A121C A138U, the self-cleavage was 1.31. For U9C U20A U73A A140G, the self-cleavage was 2.35. For G55C G72C U102C, the self-cleavage was 0.11. In the case of A22G U46C A136G, the self-cleavage is reported as 2.41. Work on U13C A92U A136G A142G yielded a self-cleavage of 1.38. U81A U108G U143A gave a self-cleavage of 2.19. A64U U85A A94G A129G gave a self-cleavage of 0.11. With U13C A42G U115C A140G the self-cleavage was 0.61. U29C C98U G144A showed a self-cleavage of 0.77. In the case of U5C U45C U62C, the self-cleavage is reported as 0.13. A2G U96C A138G showed a self-cleavage of 0. Work on U112A U115C U132A G135U yielded a self-cleavage of 1.34. Work on U39A A67G A136G yielded a self-cleavage of 0.28. A78U A94G A121G gave a self-cleavage of 0.52. Variant U15C A121G A141G has a self-cleavage of 2.02. With A6G A79G A94U the self-cleavage was 0.57. U62C A79G U119C gave a self-cleavage of 0. With U13C A59G U85C A121G the self-cleavage was 0. Variant G11U U12C A22U A31C A59G has a self-cleavage of 0.16. U9A U20C A42U U85C showed a self-cleavage of 0.32. Variant U1C G8A A64G U73A U134C G137A has a self-cleavage of 0.23. In the case of U20C A94G U108A C123U, the self-cleavage is reported as 0.25. Variant C118A U132A A141G has a self-cleavage of 1.43. Work on U5C U87A U100C yielded a self-cleavage of 0.08. U13C U29C A124G G125A gave a self-cleavage of 0.9. For A6C U13C U73A U119C, the self-cleavage was 1.06. Variant U52C U109A C120A has a self-cleavage of 0.97. Variant U46C A79U G89A U100A has a self-cleavage of 0.06. For U12C A64U C68U U96A U109C G126A A141G, the self-cleavage was 0. A69C G93A A124G showed a self-cleavage of 0.02. With A42G U47A U109A U112C A142G the self-cleavage was 0. Variant U23C A43G A121G has a self-cleavage of 1.72. With U9A C116U U130A U132C the self-cleavage was 0.74. C116A A129G A140U gave a self-cleavage of 0.44. With U52C A117G A121U the self-cleavage was 1.15. With C16U U134C G139A the self-cleavage was 0.59. With U102A U108C U115A the self-cleavage was 1.48. Work on U39C U73A C123U yielded a self-cleavage of 0.47. For A30G G58A A64G A117G, the self-cleavage was 0.79. Variant U39C U46A A67G U132C has a self-cleavage of 0.64. Variant A65G U100C A121U has a self-cleavage of 0.21. With U23C A67G A140U U143C the self-cleavage was 0.8. U81A U119G U134A showed a self-cleavage of 0. For G11U G40A U45G, the self-cleavage was 0.15. U12C A31C A42G G82A U104A A141G showed a self-cleavage of 1.84. A78C A79G G114U gave a self-cleavage of 1.91. C19A C37U U39C U52C U62C U102A showed a self-cleavage of 0. U1C U12G A42U U96C A141G showed a self-cleavage of 0.1. With C19U A22G C145A the self-cleavage was 0.56. In the case of U52C U62C C90G, the self-cleavage is reported as 0. A6G G27U G40A U47A C51U U73A gave a self-cleavage of 1.06. U5C A6U U12A G54A U87A G137U gave a self-cleavage of 0.36. U26A U112C A121U gave a self-cleavage of 1.18. In the case of A22G A42U G49A U96C, the self-cleavage is reported as 0.07. A77G U96A U104C A138U gave a self-cleavage of 0.05. Variant G34C C95U U115C has a self-cleavage of 0.4. A59G U62C U134C gave a self-cleavage of 0. In the case of U62C U100A A136U, the self-cleavage is reported as 0.02. With U12C U20C A57G G83A the self-cleavage was 1.48. For A57G U108C A136U G137A, the self-cleavage was 0.3. For A59G A78G A142C, the self-cleavage was 0.13. In the case of U47C A79G G106A U112C A124G G126A, the self-cleavage is reported as 1.81. For U81C C84U A94G U132C, the self-cleavage was 0.14. For A64U U85C U115C, the self-cleavage was 0.09. Work on A57G A64G C98A yielded a self-cleavage of 0.11. Variant G58A A92G U130A A138G has a self-cleavage of 0. For A65G C66U A69G U143C, the self-cleavage was 0.07. For A59G G83A U112C, the self-cleavage was 0. In the case of A6U U45C G72U U96G, the self-cleavage is reported as 0. Variant U14C U47G A50G A107U A142G has a self-cleavage of 0.51. Variant U13C A22G U108A has a self-cleavage of 1.14. U12G A77G U85C gave a self-cleavage of 0.5. A22G A92G U102A A117U gave a self-cleavage of 0.12. G32A U39C A141G A142G showed a self-cleavage of 1.01. A6G A50G U102A gave a self-cleavage of 0.9. A24G U104A A121G A124G showed a self-cleavage of 0.69. U12C U46C U87A C111U showed a self-cleavage of 0.17. For C103A U104A U130C, the self-cleavage was 1.65. With U119A A136G A141G the self-cleavage was 1.87. U87A U104C U119G gave a self-cleavage of 0. For A57G A107G A141G, the self-cleavage was 0.99. In the case of U15C U20C U46C A67C, the self-cleavage is reported as 0. For A22G G75C C99U, the self-cleavage was 0.31. With U9A A107G U143C the self-cleavage was 1.19. For U14A U15C U73A A79U G89A U115C, the self-cleavage was 0.12. Variant A94G U108A U115A has a self-cleavage of 0.17. Work on A77U A142G C146A yielded a self-cleavage of 1.05. A24G U47C U100C gave a self-cleavage of 0.46. For U14C U87C U143C, the self-cleavage was 0.46. With A6G A30U U73G C90U the self-cleavage was 0.19. Variant U23G G36A U134C has a self-cleavage of 0.77. A57U G58U U132A gave a self-cleavage of 0.03. A77C U100C U119C gave a self-cleavage of 0.92. A43G A57U A64U gave a self-cleavage of 0.06. Variant U29C U47A A136G has a self-cleavage of 1.67. Work on G86U U102A U112A yielded a self-cleavage of 0.05. Work on U47C A77G C103A A117G yielded a self-cleavage of 1.84. Work on U12A C19U U91A yielded a self-cleavage of 1.33. U9C C37G A64G A136G gave a self-cleavage of 0.47. With A42U A69U U104A the self-cleavage was 0.02. U52A A67U G70C U100C A140U A142G showed a self-cleavage of 0. Variant A43G U52C G75A has a self-cleavage of 0.2. Work on A43G U62A A64G A142G yielded a self-cleavage of 0.19. In the case of U1C A57G A117U, the self-cleavage is reported as 1.03. A50U A117C G127U A138G showed a self-cleavage of 1.57. U81A U87C U96C C113U gave a self-cleavage of 0.16. A43G A69G U130C gave a self-cleavage of 0. In the case of U13C A78G A136G, the self-cleavage is reported as 2.33. G25A A43U A117G C128A gave a self-cleavage of 0.42. Work on U5C U26A A50G U73A U115A yielded a self-cleavage of 0.32. G32A U108A A124G U130C gave a self-cleavage of 1.02. For U12C U14C A65G, the self-cleavage was 0.2. For C38U A79C U130A, the self-cleavage was 0.93. Work on U26C U39A U47C A69G A78G yielded a self-cleavage of 1.53. With U112C A136G A140U the self-cleavage was 2.27. For A2G A22G U39A A57C A107U U119A, the self-cleavage was 0. With A2G U39C A69G G135A U143C the self-cleavage was 0. In the case of U39A A79G A121U A140G, the self-cleavage is reported as 1.05. With A69U U81C U115C the self-cleavage was 0.05. A69G U119A U132A A136U showed a self-cleavage of 1.79. With A69G U104A U130C the self-cleavage was 0.17. For C19U U20C U100C, the self-cleavage was 1.23. For A50G U100A U104C, the self-cleavage was 2.21. U15C G72C A141G showed a self-cleavage of 1.31. U14A A124G A136G showed a self-cleavage of 1.38. Work on U15C A64G A69G G135A yielded a self-cleavage of 0.5. A43G U62C A141G showed a self-cleavage of 0.05. With U1A A6G G25U U112G A142G the self-cleavage was 0.47. Variant U81A U102C U112A has a self-cleavage of 2.57. Work on U112C U130C U143A yielded a self-cleavage of 0. Work on A78G U108C U132C yielded a self-cleavage of 0.84. U13A A24U A30G U62C U73A C99U showed a self-cleavage of 0.12.
